According to PMC9926122:
Results are given in words; binding and its absence hold for the method and conditions named. Some results given as binding are weak or reduced against the parent protein; the word gives no strength.

Sequences of proteins named here, by UniProt entry; tags and fusion partners are left off.
UniProt Q15691: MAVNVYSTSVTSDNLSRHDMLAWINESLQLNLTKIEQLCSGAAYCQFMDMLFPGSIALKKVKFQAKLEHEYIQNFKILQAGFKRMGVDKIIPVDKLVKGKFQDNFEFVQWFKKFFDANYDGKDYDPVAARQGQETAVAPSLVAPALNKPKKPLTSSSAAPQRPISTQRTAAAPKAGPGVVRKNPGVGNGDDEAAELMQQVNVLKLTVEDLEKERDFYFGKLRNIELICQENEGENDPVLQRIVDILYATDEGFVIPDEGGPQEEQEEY

Target: 2H-15N-labeled EB1 (human) (UniProt Q15691)
Assay: NMR titration; 15N-1H TROSY at 700 MHz; Ska1 peptide from 0.5 to 65 uM added to 95 uM 2H-15N-labeled EB1 in 50 mM potassium phosphate, 300 mM KCl, 1 mM DTT, 10% D2O, pH 6.8; both purified

KENVPSHLPQVTVT (acetylated N-terminus) [Ska1 SHLP peptide (Ska1 p)]
binding: binds
